Assay results as given in ChEMBL document CHEMBL4888484, “Replenishing the malaria drug discovery pipeline: Screening and hit evaluation of the MMV Hit Generation Library 1 (HGL1) against asexual blood stage Plasmodium falciparum ,using a nano luciferase reporter read-out” (2022).
Out of some 150,000 compounds screened, about 540 (0.36%) showed an effect of 50% or more. This is one part of the list.

tested on: Plasmodium falciparum; assay: Primary screen in NF54 nanoGlo assay, in single point, at 2uM, 72h; a lower Z score goes with more inhibition; format: functional, Erythrocyte; details: timepoint 72 hour

| SMILES | % Inhibition [%] | Z score |
| --- | --- | --- |
| O=S(=O)(Cc1ccccc1)N[C@@H]1COc2ccc(Br)cc2C1 | -7 | 0.93 |
| CC(C)(CO)N1CCN(C(=O)c2ccc(CN3CCCC3)o2)CC1 | -23 | 3.56 |
| O=C(O)c1cccc(NC[C@H]2CN(Cc3ccccc3)CC23CCOCC3)n1 | -21 | 3.9 |
| Cc1nc(CNC(=O)c2cccc(S(=O)(=O)N3CCOCC3)c2)cs1 | -6 | 0.89 |
| C[C@H]1CN(C(=O)NCCS(=O)(=O)CCc2ccccc2)CCO1 | -14 | 1.38 |
| CC(C)=CCC[C@H](C)NCC(=O)N1CCOCC1 | -1 | 0.14 |
| COc1ccc(/N=C(\NC[C@H]2CCCO2)NC(=O)c2ccc(Cl)cc2)cc1OC | -7 | 1.19 |
| Cc1ccccc1N1CCN(C(=O)CCC2CCN(c3cc(NC4CC4)ncn3)CC2)CC1 | 41 | -4.61 |
| CN1CCN(Cc2ccc(S(C)(=O)=O)cc2)C(C)(C)C1 | -5 | 0.91 |
| CC1(CO)CCCC1NC1Cc2ccccc2C1 (stereo unspecified) | -11 | 1.12 |
| O=C(Cn1cc2ccccc2n1)N1CCC[C@H](N2CCN(c3ccccc3)CC2)C1 | -15 | 2.08 |
| O=C(c1cn(Cc2cccc(Cl)c2)nn1)N1CCC[C@H](COc2cccc(F)c2)C1 | -12 | 1.52 |
| CC(NC(=O)CC1CCCO1)c1ccc(-c2cccnc2)cc1 (stereo unspecified) | -2 | 0.26 |
| CCn1ccnc1CN1CCc2[nH]cnc2[C@H]1c1ccc(OC)c(F)c1F | -3 | 0.28 |
| Cc1nc(N2CCC[C@H]2C2CCOCC2)cc2nncn12 | -4 | 0.67 |
| Cc1cc(C(=O)NCc2cc(-c3ccncc3)nn2C)c(C)o1 | 0 | -0.02 |
| CC1CN(CCNCc2c[nH]nc2-c2cccs2)CC(C)O1 (stereo unspecified) | 0 | 0.02 |
| Cc1ccc(-n2nc3c(=O)n(CCCC(=O)N4CCOCC4)nc(C)c3c2C)cc1 | 12 | -1.42 |
| COc1ccccc1CNC(=O)c1nc[nH]c1C(=O)NCC1CC1 | 10 | -1.12 |
| COc1ccc(C(=O)Nc2ccc(Br)c(C)n2)nn1 | -5 | 0.92 |
| CCn1c(=O)sc2cc(S(=O)(=O)N3CCC(C(=O)Nc4ccc(Cl)cc4C)CC3)ccc21 | 0 | 0.06 |
| COc1ccc(CNCCc2ccc(C)cc2)cc1OC[C@@H](O)CN1CCCCC1 | -10 | 0.87 |
| O=C(c1ccsc1)N1CCN(C(=O)c2ccccc2Cl)CC1 | 0 | 0.01 |
| Cc1nn(Cc2cc(F)ccc2OC(F)F)c(=O)s1 | -14 | 1.76 |
| O=C(c1n[nH]c2c1CCC2)N1CCC[C@H]1c1nc2ccccc2s1 | 10 | -1.43 |
| CC(=O)c1cc(C(=O)NCc2cccnc2N2CCN(C)CC2)c(=O)[nH]c1C | 4 | -0.52 |
| CNC(=O)NC(=O)COc1c(Br)cccc1Br | -14 | 2.45 |

| SMILES | % Inhibition [%] | Z score |
| --- | --- | --- |
| CC(C)C(=O)Nc1ccc(N2CCN(Cc3ccccc3)C2=O)nc1 | -12 | 1.34 |
| CCCN1C=NS(=O)(=O)c2cc(C(=O)Nc3cccc4ccccc34)ccc21 | -5 | 0.84 |
| O=C(O)c1ccc(C(=O)N(Cc2ccccc2)CC2CCOCC2)c(F)c1 | 32 | -3.62 |
| CCc1cccc(OC[C@@H](O)Cn2c(N3CCOCC3)nc3c2c(=O)[nH]c(=O)n3C)c1 | -1 | 0.1 |
| CCc1ccc(Cn2nc(C3CCCC3)nc2-c2c[nH]c(=O)[nH]c2=O)cc1 | -10 | 1.88 |
| COCn1nccc1S(=O)(=O)NCc1cc(C(F)(F)F)[nH]n1 | -7 | 0.93 |
| Cc1cccc(C)c1OCC(=O)c1ccc2c(c1)N(CC(=O)N1CCCCC1)C(=O)CO2 | -4 | 0.47 |
| CC[C@H](C)n1nc(C(=O)N2CCN(c3ccc(F)cn3)CC2)cc1C | -10 | 1.39 |
| CC(NC(=O)C1CC(=O)N(C)C1)c1cccc(-n2cccn2)c1 (stereo unspecified) | 0 | 0.01 |
| Cc1cc(F)cc(S(=O)(=O)N2CC(N(C)C)C2)c1 | -7 | 1.06 |
| CC(C)N1CCC(N(C)S(=O)(=O)CC[C@H]2CCCO2)CC1 | 4 | -0.58 |
| CNC(=O)c1ccc(OC)c(-c2ccc(NCCN3CCOCC3)nc2)c1 | -7 | 1.05 |
| COc1nccnc1N1C[C@H]2CC[C@@H](C1)N(CC=C(C)C)C2=O | -11 | 2.11 |
| N#Cc1cccc(C(=O)Nc2cccc3[nH]cnc23)c1 | -13 | 1.75 |
| CC[C@H](NC(=O)N(C)Cc1ccsc1)c1ccc(S(C)(=O)=O)cc1 | 11 | -1.33 |
| Cc1csc(-c2nc3ccccc3[nH]c2=O)n1 | -14 | 1.98 |
| C[C@H]1CC(c2ccc(F)cc2)=Nc2ccccc2N1 | -1 | 0.07 |
| Cc1noc(C)c1CCC(=O)Nc1ccc(N2CCCC2)c2ncccc12 | -13 | 1.23 |
| O=C(C1CCOCC1)N1CCO[C@@H](Cc2ccccc2Cl)C1 | 4 | -0.69 |
| CC1=C(C(=O)NCc2cccc(N3CCCC3)c2)[C@H](C)NC(=O)N1 | 1 | -0.24 |
| Cc1n[nH]cc1CNc1cccc(CNC(=O)OC(C)(C)C)c1 | -6 | 0.91 |
| CN(C)C1CCCC1Oc1ncnc2sccc12 (stereo unspecified) | -9 | 1.16 |
| Cc1ccc(NS(=O)(=O)c2cc(C(=O)N3CCC(Cc4ccccc4)CC3)ccc2Cl)c(C)c1 | -17 | 1.9 |
| COc1ccc(C(=O)N2CC(C(=O)N3CCCCC3)C(c3cc(OC)c(OC)c(OC)c3)C2)cc1 (stereo unspecified) | -12 | 2.14 |
| Cc1ccsc1S(=O)(=O)N1CCC[C@H](CCO)CC1 | -4 | 0.68 |
| COc1c(C)cc(-c2ccc3nc(-c4cccc(F)c4)oc3c2)cc1C | -7 | 0.96 |
